In PubChem BioAssay (NCI) one finds TGI and GI50 data, which are given here for 84 molecules.

Where “and” joins values, the source holds several entries; their conditions need not be identical. Identical values can stand only once.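 Interpolation was linear, between the two tested concentrations surrounding the appropriate level; five concentrations were tested over 48 hours in 96-well plates. The concentration for 50% growth inhibition is given as GI50. At the TGI there is no net growth.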

The assay deals with NCI-H322M lung. Put plainly: NCI anticancer screen, dose series, 48 h.
`COC(=O)[C@]12CC=C3O[C@@H]4OC5(CCCCC5)O[C@@H]4[C@H]3C1C(=O)C=CC2=O` (stereo partly specified) had a TGI of 45.5 µM.
Still for that read-out and setting: the figure for `NC(=O)NCCSC1CCCCC1O` (stereo unspecified) is greater than 100 µM.
As for `CCN1CCC(CC(=O)Nc2n[nH]c3nc(-c4cccs4)c(Br)cc23)CC1`, the GI50 is 13.1 µM and the TGI was greater than 25 µM.
Molecule `COc1cc(/C=C/C(=O)OC[C@H](Br)[C@H](OC(C)=O)c2ccc3c(c2)OCO3)cc(OC)c1OC` came in with a TGI greater than 100 µM.
On the same count and under the same terms, the figure for `Cc1ccc2nc(Cl)c(/C=N/N3C(=O)/C(=C/c4ccc(N(C)C)cc4)N=C3c3ccccc3)cc2c1` is greater than 100 µM; for `COc1ccccc1NC(=O)CC(=O)NNCC(=O)Nc1nnc(-c2ccccc2)o1` it is greater than 100 µM; for `Cc1cc(N=C2C=C(Nc3cc(C)on3)C(=O)c3ccccc32)no1` it is greater than 100 µM.
On the same count and under the same terms, the figure for `COc1ccc(/C=N/n2c(Cc3ccc(Cl)cc3)n[nH]c2=O)c(OC)c1` is greater than 100 µM.
Molecule `c1ccc(C2=C(c3ccccc3)P(c3ccccc3)C2)cc1` (stereo unspecified) showed a TGI greater than 100 µM.
On the same count and under the same terms, the figure for `COc1ccc2c(c1)-c1oc3ccccc3c(=O)c1CO2` is greater than 100 µM; for `CS(=O)(=O)O.[Ag]` it is 31.8 µM.
In turn, `CC1(C)N[P+]2(Nc3ccccc3O2)OC1=O` (stereo unspecified) registered a TGI greater than 100 µM.
The same measure, in the same setting: the figure for `O=C(O)c1ccc(Nc2nc3ccccc3nc2C(=O)O)cc1` is greater than 100 µM; for `COc1cc(CNc2nc3cc(C(F)(F)F)ccc3nc2C)cc(OC)c1OC` it is 62.6 µM.
As to `CCC[CH2][Sn]1([CH2]CCC)[O]C(=O)CN=Cc2ccccc2[O]1`, the GI50 is 1.04 µM and the TGI was 2.24 µM.
As to `COC1/C=C/C(C)C(C(C)C(OC)C(C)CCC(=O)C(C)C(C/C=C/N(C)C=O)OC)OC(=O)/C=C/C=C(\C)CC(OC)C(OC)C2=CC(=O)O[C@@H](C(C)C(OC)CC(OC)/C=C/C(C)C(O)C1)[C@H]2O` (stereo partly specified), the TGI amounted to 0.926 µM.
Turning to `COc1cc(/C=C2\C(=O)Nc3ccccc32)cc(OC)c1OC`, the GI50 is 18.3 µM and the TGI was determined as 87.1 µM.
As to `C#CCOC(=O)C(N)CCCN=C(N)N` (stereo unspecified), the TGI was greater than 100 µM.
Regarding `C[C@@H]1COC(Nc2ccc3ncnc(Nc4ccc(OCc5nccs5)c(Cl)c4)c3c2)=N1`, the GI50 was 0.311 µM and 0.308 µM; the TGI was > 10 µM and 15.3 µM.
The molecule `CCOC12SC(=Nc3ccc(C)cc3)NN1C(=S)N(C)N=C2C` (stereo unspecified) gave a TGI greater than 100 µM.
As to `N=C(N)c1ccc(-c2ccc(-c3ccc(F)cc3)o2)o1`, the GI50 was 1.6 µM and the TGI amounted to 3.17 µM.
The matching figures for `C=C(C)[C@@H]1CC[C@]2(C(=O)NCCNCCNCCN)CC[C@]3(C)[C@H](CC[C@@H]4[C@@]5(C)CCC(=O)C(C)(C)[C@@H]5CC[C@]43C)[C@@H]12`: 7.32 µM and 14 µM.
Molecule `CC(C)=CC1CC(C)C2(CCC3(C)CC4C(C(=O)CC4(C)O)/C(C=O)=C\CC32)O1` (stereo unspecified) had a TGI of 1.23 µM.
Turning to `CN1CCC(n2[nH]c(-c3ccccc3)c(Cc3ccccc3)c2=O)CC1`, the TGI is greater than 100 µM.
Molecule `COc1ccc(C2(C3c4cc(OC)c(OC)cc4CCN3C)SCCCS2)cc1O` (stereo unspecified) came in with a TGI greater than 100 µM.
Still for that read-out and setting: the figure for `O=CN1CCN(C=S)CC1` is greater than 100 µM.
With `C=C1C(=O)O[C@H]2C[C@@H]1CCC1(C)OC1CC/C(C)=C/CC[C@H]2C` (stereo partly specified), the GI50 was 18.2 µM and the TGI came to 35.7 µM.
Consider `CCOC(=O)C(NCc1cccc(C(F)(F)F)c1)(NC(=O)c1ccccc1)C(F)(F)F` (stereo unspecified), for which the TGI is greater than 100 µM.
The same measure, in the same setting: the figure for `O=C(O)c1ccc(C2C3C=CC(C3)C2[N+](=O)[O-])cc1` (stereo unspecified) is greater than 100 µM.
Consider `OCCO[P+]1(OCCO)n2c3ccc2C(c2ccccc2)=C2C=CC(=N2)C(c2ccccc2)=c2ccc(n21)=C(c1ccccc1)C1=NC(=C3c2ccccc2)C=C1`, for which the TGI was found to be 1.46 µM.
With `CO/C(=N\N=C\c1cccc(C(F)(F)F)c1)c1ccncc1`, the TGI was greater than 100 µM.
`Cc1ccc2nc(N/N=C/c3cccc(C)n3)cc(C)c2c1` gave a TGI of 32.5 µM.
In the case of `CCCCCCCCCCCCCCCCn1cc[n+](Cc2ccccc2)c1C`, the GI50 is 1.64 µM and the TGI stood at 3.73 µM.
With `COc1nc2[nH]ccc2c(=O)n1C`, the TGI was greater than 100 µM.
Same read-out and setting: the figure for `CCC(C)C1(O)OC2CC3(C)OC(=CC3=O)/C(C)=C\C3OC(=O)C1(C)C32` (stereo unspecified) is 67.8 µM; for `O=C1C(N=Nc2ccc(-c3nc4ccccc4[nH]3)cc2)NC(=S)N1c1ccccc1` (stereo unspecified) it is greater than 100 µM.
Turning to `CC(=O)OC12CC(C)C3(O)C4C=C(C)C(=O)[C@@]4(O)CC(CO)=C[C@H]3C1C2(C)C` (stereo partly specified), the GI50 was greater than 1000 µM and the TGI is greater than 1000 µM.
Regarding `O=C1C[C@H](c2ccccc2)C2(C(=O)c3ccccc3C2=O)[C@H](c2ccccc2)C1`, the TGI is greater than 100 µM.
`CC(=O)OCC1OC(c2nnc(C)o2)=CC(OC(C)=O)C1OC(C)=O` (stereo unspecified) had a TGI greater than 100 µM.
Same read-out and setting: the figure for `CCOC(=O)c1cnc2cc3cccccc3n2c1=O` is greater than 100 µM; for `COC(=O)C1=Cc2c(cc(OC)c(OC)c2OC)[C@H](c2ccc(OC)c(OC)c2OC)C1C(=O)OC` (stereo partly specified) it is greater than 100 µM.
As for `Oc1cc(Cl)ccc1Cc1ccc(Cl)cc1O`, the GI50 is 17.2 µM and the TGI was determined as 37.9 µM.
`CCOC(=O)/C(=C\c1ccc(F)cc1)C(C)=O` showed a TGI of 62.2 µM.
`Cc1ccc(F)cc1NC(=O)c1cc(Cl)ccc1Nc1ccccc1`: the GI50 is greater than 100 µM and the TGI was greater than 100 µM.
As to `COc1ccc(-c2ccccc2)cc1-c1c(Nc2cc(Cl)cc(Cl)c2O)c(=O)c1=O`, the GI50 was 1.54 µM and the TGI was greater than 50 µM.
Take `CN(CCN(C)C(=O)CCOS(C)(=O)=O)C(=O)CCOS(C)(=O)=O`: the TGI is greater than 100 µM.
Same read-out and setting: the figure for `c1ccc(Nc2nnc(-c3nsc4ccccc34)o2)cc1` is greater than 100 µM; for `C[C@H](CCC1=NCCN1)[C@H]1CC[C@H]2[C@@H]3CC[C@@H]4C[C@H](O)CC[C@]4(C)[C@H]3C[C@H](O)[C@]12C` it is 28.5 µM; for `NC(=O)CS(=O)CC(N)C(=O)O` (stereo unspecified) it is greater than 100 µM.
On the same count and under the same terms, the figure for `OCC(O)C(O)C(O)C(/C=N\Nc1ncnc2ccc(Br)cc12)=N/Nc1ncnc2ccc(Br)cc12` (stereo unspecified) is greater than 100 µM; for `CCOC(=O)C(=O)Nc1ccc(Cl)c(C(F)(F)F)c1` it is greater than 100 µM.
Regarding `O=C(/C=C\c1ccc2ccccc2n1)c1cc(Cl)ccc1O`, the GI50 was 46.5 µM and the TGI was greater than 100 µM.
The molecule `N#Cc1nc(/C=C/c2ccccc2)oc1N` came in with a TGI greater than 100 µM.
In the case of `COc1ccc(-n2c3c(c4c(CN(C)C)c(O)c(C)cc42)CCc2ccccc2C3=O)cc1`, the GI50 is greater than 100 µM and the TGI was greater than 100 µM.
Regarding `COc1ccc(C2=C(c3cc(OC)c(OC)c(OC)c3)C(=O)OC2)cc1OC`, the GI50 is 0.0432 µM and the TGI came to 12.1 µM.
`Oc1ccc(CN(Cc2ccc(C(F)(F)F)cc2)Cc2ccc(O)c3ncccc23)c2cccnc12`: the GI50 was 0.186 µM and the TGI is greater than 100 µM.
For `COc1cc(-c2nc3nc(N4CCN(C)CC4)ccc3[nH]2)c(OC)c2[nH]c(COC(C)=O)nc12`, the TGI worked out at 98.3 µM.
`CC(=O)NC1=C(C)C(=O)c2c(nc3n2CC[C@H]3OC(C)=O)C1=O`: the TGI was 10.1 µM.
Same read-out and setting: the figure for `O=C(CCCn1ccnc1[N+](=O)[O-])NCCn1ccnc1[N+](=O)[O-]` is greater than 100 µM.
As to `COc1cc(OC)cc(-c2cncn2-c2ccc(-c3nc4cc(OC)cc(OC)c4s3)cc2)c1`, the GI50 was greater than 100 µM and the TGI was greater than 100 µM.
Molecule `CC1=CC2CC(C)C1(C)CCc1ccoc12` (stereo unspecified) gave a TGI greater than 100 µM.
The same measure, in the same setting: the figure for `CC1CC2(CCC1OCc1ccccc1)OCCO2` (stereo unspecified) is greater than 100 µM.
Take `Cc1cc(C)c2c(N)c3cccc(C)c3nc2n1`: the GI50 is 2.39 µM and the TGI was determined as 11.2 µM.
The molecule `CN1CCCCC(C(O)(c2ccccc2)c2ccccc2)C1=O` (stereo unspecified) yielded a TGI greater than 100 µM.
Regarding `COc1ccc2c(c1)[C@@]1(C)CCC3c4ccc(O)cc4CCC3C1C2` (stereo partly specified), the GI50 was 15.3 µM and the TGI is 32.8 µM.
On to `COc1ccc(-c2nc3sc4c(c3c(=O)[nH]2)CCCC4)c2ccccc12`, for which the GI50 is 0.646 µM and 2.43 µM; the TGI is greater than 100 µM.
As for `O=[N+]([O-])/C=C/c1ccc([N+](=O)[O-])cc1`, the GI50 was 14.7 µM and the TGI was determined as 30.4 µM.
`Cc1ccccc1C(C(=O)NC1CCCCC1)N(C(=O)Cn1ccnc1C)c1cccc(F)c1` (stereo unspecified): the GI50 was greater than 51.7 µM and the TGI is greater than 100 µM.
`CC(C)C(C/C=C1\CC(CO)(COC(=O)CC(C(C)C)C(C)C)OC1=O)C(C)C` (stereo unspecified) gave a TGI of 26.3 µM.
`CC[C@@]1(O)C(=O)OCc2c1cc1n(c2=O)Cc2cc3c(NC(=O)CN)cccc3nc2-1` displayed a TGI greater than 86.5 µM.
The molecule `CC(C)CCC/C(CBr)=C(\Cl)CCl` came in with a TGI of 27.3 µM.
As to `O=C1OCC2=C1C(c1cccc(C(F)(F)F)c1)c1cc3c(cc1N2CCO)CCC3` (stereo unspecified), the GI50 is 0.492 µM and the TGI is 9.44 µM.
For the molecule `Cc1cccc2c1C/C(=C\c1cccc(C)c1C(=O)O)C2=O`, the TGI is greater than 100 µM.
The molecule `O=C(/C=C/c1ccccc1O)/C=C/c1ccccc1O` registered a TGI of 6.02 µM.
The same measure, in the same setting: the figure for `c1cncc(CNc2ncn[nH]2)c1` is greater than 100 µM.
Consider `COc1ccc(C2=CN3CCC[C@H]3C=C2c2cc(O)c(OC)c(OC)c2)cc1OC`, for which the TGI was 0.039 µM and 0.0113 µM.
For `CC1(C)Cc2c(Br)c(Br)c(Br)c(OCC(O)CN3CCOCC3)c2O1` (stereo unspecified), the GI50 was 14.3 µM and the TGI was 28.4 µM.
Take `COc1cc2c(c(OC)c1OC)-c1ccc(SC)c(=O)cc1C(CC(=O)Oc1cccc(C#N)c1)C2` (stereo unspecified): the TGI was greater than 100 µM.
As for `O=C1CC/C(=C\COc2ccc3ccc(=O)oc3c2)O1`, the GI50 is 28.1 µM and the TGI was found to be 84 µM.
In turn, `COc1ccc2c(c1)-c1nn(CCN(C)C)c3ccc(C(=O)NCCCN(C)CCCNC(=O)c4ccc5c6c(nn5CCN(C)C)-c5cc(OC)ccc5Nc46)c(c13)N2` showed a TGI of 0.757 µM.
Still for that read-out and setting: the figure for `CC(=O)NC1=C(NCc2ccc(Cl)cc2)C(=O)c2ccccc2C1=O` is greater than 50 µM.
With `COc1ccc2c(c1)C(=O)c1c-2n(CCCN2CCOCC2)c(=O)c2cc([N+](=O)[O-])ccc12`, the GI50 is less than 0.01 µM and the TGI is 8.45 µM.
As to `Cc1ccc(Oc2nc3ccccc3cc2-c2nnc(Cn3c(COc4ccccc4)nc4ccccc43)o2)cc1`, the GI50 was 14.9 µM and the TGI stood at 34.4 µM.
Take `CC[C@@H]1CC[C@@H]2[C@H](CC[C@]3(C)[C@@H](OS(=O)(=O)c4ccc(C)cc4)CC[C@@H]23)[C@H]1CO`: the TGI was greater than 100 µM.
